In PubChem BioAssay (Tox21):
Several values for one entry are separate records, joined by “and”; a condition that tells them apart may be missing. Equal values may be shown once. Inconclusive means that the source gave no clear call. Such entries were picked first, then a sample of the others. For part of these data: Potencies beside an inconclusive call are fits to weak or partial responses and may not hold up. Activity calls are given as the source filed them. Unless noted, calls follow the shape of the dose curve; as a rule, active = well fitted curve in the direction sought with a large enough effect in the repeat runs; inconclusive = weak or mixed curves; inactive = no such curve, though single readings can be large; an effect the other way counts as inactive or inconclusive.

How the values were obtained:
[1] = target: Nuclear receptor subfamily 1 group I member 3 (Homo sapiens) (UniProt Q14994); assay: qHTS assay to identify small molecule agonists of the constitutive androstane receptor (CAR) signaling pathway (AID 1224839); details: HepG2 hCAR CYP2B6-luciferase, agonist mode, 24 h; series mostly up to 92.4 µM; also: nearly all actives have a fitted effect of over 15% in size; also: potency is read from the fitted curve at half-maximal effect;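 as to activation: HepG2 cells stably carrying human CAR and a CYP2B6 luciferase reporter; % is scaled to controls: 0 for no effect and ±100 for the full control effect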
UniProt Q14994, sequence (Q14994 whole entry, looked up): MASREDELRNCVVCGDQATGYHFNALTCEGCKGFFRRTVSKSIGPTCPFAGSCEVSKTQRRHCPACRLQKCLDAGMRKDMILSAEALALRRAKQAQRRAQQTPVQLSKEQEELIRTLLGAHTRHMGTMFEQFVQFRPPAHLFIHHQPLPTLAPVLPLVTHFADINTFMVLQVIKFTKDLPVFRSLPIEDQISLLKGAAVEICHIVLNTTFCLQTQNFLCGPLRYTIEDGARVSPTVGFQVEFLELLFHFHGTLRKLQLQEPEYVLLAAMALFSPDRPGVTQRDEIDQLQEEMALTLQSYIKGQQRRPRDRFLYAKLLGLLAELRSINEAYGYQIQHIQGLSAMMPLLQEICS
Procedure, shortened: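 Stable hCAR/CYP2B6-2.2kb HepG2 line in DMEM with 10% FBS; compounds (15 concentrations) and 0.75 uM PK11195 final, 24 h at 37 C/5% CO2, then ONE-Glo luminescence after 30 min.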

[2] = qHTS assay to identify small molecule agonists of the hypoxia (HIF-1) signaling pathway (AID 1224846; active = well fitted activation curve with a large enough effect in the signal ratio in the repeat runs, not every such curve was filed as active; inconclusive = weak or mixed curves; the % refers to the signal ratio; also: potency is read from the fitted curve at half-maximal effect; as to activation: % is scaled to controls: 0 for no effect and ±100 for the full control effect); details: HRE-bla ME-180 cells, beta-lactamase ratio, 17 h; activation: at 76.8 µM (top of the series) unless noted
Procedure, shortened: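 Agonist mode reporter screen. ME-180 cells stably expressing bla under HRE control received test compounds in DMSO for 17 hrs (37C, 5% CO2), and beta-lactamase activity was then detected with the CCF4-AM FRET substrate.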

[3] = qHTS assay to identify small molecule antagonists of the estrogen related receptor (ERR) signaling pathway from Tox21 library (AID 1224848); details: ERR reporter cell line, luciferase antagonist mode, 18 h; series mostly up to 92.4 µM; also: nearly all actives have a fitted effect of over 50% in size; also: potency is read from the fitted curve at half-maximal effect
Procedure, shortened: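 Quantitative high-throughput format: ERR reporter cells (2,000/well) pre-incubated 6 h, treated 18 h at 37 C with compounds in DMSO alongside positive and negative controls, then read by ONE-Glo luminescence.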

[4] = qHTS assay to identify small molecule agonists of the estrogen related receptor (ERR) signaling pathway from Tox21 library (AID 1224849; calls by dose curve; also: % is scaled to controls: 0 for no effect and ±100 for the full control effect; nearly all actives have a fitted effect of over 15% in size); details: ERR reporter cell line, ONE-Glo luciferase, 18 h; at 92.4 µM (top of the series) unless noted
Procedure, shortened: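 Quantitative HTS in agonist format: NTP ERR cell line, compounds transferred in DMSO after 6 h plating, 18 h incubation at 37 C, ONE-Glo luminescence endpoint.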

[5] = target: Thyrotropin receptor (Homo sapiens) (UniProt P16473); assay: qHTS assay to identify small molecule agonists of the thyroid stimulating hormone receptor (TSHR) signaling pathway (AID 1224843; calls by dose curve; also: % is scaled to controls: 0 for no effect and ±100 for the full control effect; nearly all actives have a fitted effect of over 45% in size); details: TSHR-HEK293 cells, cAMP HTRF, agonist mode, 30 min; activation: at 92.4 µM (top of the series) unless noted
UniProt P16473, sequence (P16473 whole entry, looked up): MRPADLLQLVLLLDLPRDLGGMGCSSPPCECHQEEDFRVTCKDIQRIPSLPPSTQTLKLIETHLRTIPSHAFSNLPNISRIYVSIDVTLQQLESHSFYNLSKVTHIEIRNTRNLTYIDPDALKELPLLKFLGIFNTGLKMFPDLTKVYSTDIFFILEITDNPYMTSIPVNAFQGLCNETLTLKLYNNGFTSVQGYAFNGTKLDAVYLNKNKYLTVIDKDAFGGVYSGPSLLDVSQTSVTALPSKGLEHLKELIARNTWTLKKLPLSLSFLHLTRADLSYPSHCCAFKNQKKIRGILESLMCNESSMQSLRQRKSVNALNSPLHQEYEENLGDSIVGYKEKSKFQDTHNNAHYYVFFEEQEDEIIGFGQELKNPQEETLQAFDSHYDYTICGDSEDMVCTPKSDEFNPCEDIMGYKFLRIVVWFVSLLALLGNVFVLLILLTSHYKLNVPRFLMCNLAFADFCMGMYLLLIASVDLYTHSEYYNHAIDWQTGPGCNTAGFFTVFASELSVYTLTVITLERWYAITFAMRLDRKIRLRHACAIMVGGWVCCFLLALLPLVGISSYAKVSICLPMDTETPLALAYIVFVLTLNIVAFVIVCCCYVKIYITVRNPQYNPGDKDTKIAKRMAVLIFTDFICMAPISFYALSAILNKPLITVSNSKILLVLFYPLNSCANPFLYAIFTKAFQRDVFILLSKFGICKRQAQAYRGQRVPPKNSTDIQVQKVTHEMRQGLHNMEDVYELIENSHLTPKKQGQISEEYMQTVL
Procedure, shortened: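 Agonist-mode screen: TSHR HEK293 cells received test chemicals for half an hour at room temperature, then HTRF cAMP detection reagents for one hour prior to fluorescence measurement. Each chemical ran as a 15-concentration series, triplicated.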

[6] = qHTS assay to identify small molecule agonists of the hypoxia (HIF-1) signaling pathway - cell viability counter screen (AID 1224844; calls by dose curve; also: nearly all actives have a fitted effect of over 50% in size; also: potency is read from the fitted curve at half-maximal effect); details: HRE-bla ME-180 viability, CellTiter-Glo luminescence, 17 h; series mostly up to 76.8 µM
Procedure, shortened: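 Viability counter screen: HRE-bla ME-180 cells plated 5 hrs before compound addition, treated 17 hrs at 37C and 5% CO2, then CellTiter-Glo added after the FRET reporter read; luminescence after 30 min.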

[7] = qHTS assay to identify small molecule agonists of H2AX - cell viability counter screen (AID 1224847; calls by dose curve; also: potency is read from the fitted curve at half-maximal effect; nearly all actives have a fitted effect of over 30% in size); details: CHO-K1 viability, CellTiter-Glo luminescence, 3 h; series mostly up to 154 µM
Procedure, shortened: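 Viability of CHO-K1 (wild type) cells after 3 hr compound exposure was measured by CellTiter-Glo luminescence.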

[8] = qHTS assay to identify small molecule agonists of the estrogen related receptor signaling pathway with the pleiotropic PPARgamma coactivator (PGC) from Tox21 10K library (AID 1224842); details: PGC/ERR reporter cell line, luciferase ONE-Glo, 18 h; series mostly up to 42.5 µM; also: potency is read from the fitted curve at half-maximal effect; nearly all actives have a fitted effect of over 15% in size
Procedure, shortened: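 PGC/ERR reporter cell line, 2,000 cells per well, incubated 6 h at 37 C before 23 nL compound in DMSO was added. After 18 h at 37 C, One-Glo luminescence read following 30 min at room temperature.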

[9] = qHTS assay to identify small molecule agonists of H2AX (AID 1224845; active = well fitted activation curve with a large enough effect in the signal ratio in the repeat runs, not every such curve was filed as active; inconclusive = weak or mixed curves; the % refers to the signal ratio; also: potency is read from the fitted curve at half-maximal effect; as to activation (H2AX phosphorylation): % is scaled to controls: 0 for no effect and ±100 for the full control effect); details: CHO-K1 phospho-H2AX Ser139 HTRF, 3 h; activation (H2AX phosphorylation): at 154 µM (top of the series) unless noted
Procedure, shortened: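 Wild-type CHO-K1 cells, plated overnight, exposed 3hr at 37C to 15 concentrations (0.76% DMSO final). Lysed, then HTRF anti-pH2AX (S139) cryptate and anti-H2AX-d2 antibodies, 24 hr room temperature; 665/620 nm emission read.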

[10] = qHTS RealTime-Glo MT Cell Viability Assay in HEK293 cells - 32 hour (AID 1224868); details: RealTime-Glo luminescence; series mostly up to 76.8 µM; also: nearly all actives have a fitted effect of over 50% in size; also: potency is read from the fitted curve at half-maximal effect; as to activity change, negative = cytotoxic: top concentration of the series differs between compounds; % is scaled to controls: 0 for no effect and ±100 for the full control effect
Procedure, shortened: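 Tox21 10K qHTS, HEK293, 600 cells/well, RealTime-Glo reagent co-dispensed with cells; 5 h preincubation, compound by pintool, 37 C, luminescence at 0–40 h.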
Tags tell the direction and shape of the fitted curve or compound fluorescence and quenching.

O=C(O)Cn1c(C(=O)Nc2nc(-c3ccccc3Cl)cs2)cc2ccccc21
Potency [1]: inconclusive: 33.5 µM [activator, partial curve, poor fit] | Potency [2]: inconclusive: 9.52 µM [rising, partial curve] | Potency [3]: inactive | activity change, positive = activation [4]: inconclusive: 12% [at 42.5 µM]

Cc1cccc(Nc2ccccc2)c1
Potency [1]: inconclusive: 38.6 µM [activator, partial curve] | activation [5]: inconclusive: 29.4% | Potency [6]: inactive | Potency [7]: inconclusive: 127 µM [cytotoxic, single point]

Cc1nc(-c2ccc(OCC(C)C)c(C#N)c2)sc1C(=O)O
Potency [1]: active: 0.075 µM | Potency [8]: active: 668 nM | Potency [5]: inactive | Potency [7]: inconclusive: 15.6 µM [rising, full curve]

O=c1oc2cc(O)ccc2c2oc3cc(O)ccc3c12
Potency [1]: inconclusive: 65.7 µM [activator, single point] | Potency [9]: inconclusive: 54.3 µM [partial curve] | activation [2]: inconclusive: 10.9% | activity change, positive = activation [4]: inconclusive: 36.7% | Potency [10]: inconclusive: 21 µM [cytotoxic, partial curve]

Cc1ccc2oc(=O)ccc2c1
Potency [1]: inconclusive: 35.4 µM [activator, partial curve] and inconclusive: 48.6 µM [activator, partial curve, poor fit] | Potency [9]: inactive

O=[N+]([O-])c1ccc2c(c1)Cc1ccccc1-2
Potency [1]: inconclusive: 68.6 µM [activator, partial curve, poor fit] | Potency [8]: inconclusive: 76.9 µM [activator, single point] and inconclusive: 61.1 µM [activator, partial curve, poor fit] | Potency [6]: inconclusive: 49 µM [cytotoxic, partial curve, poor fit] | Potency [9]: inconclusive: 127 µM [fluorescent, single point] | activation (H2AX phosphorylation) [9]: inconclusive: 4.31%

O=C(c1ccccc1)c1cc(Cl)ccc1O
Potency [1]: inconclusive: 58 µM [activator, partial curve] | activation (H2AX phosphorylation) [9]: inconclusive: 9.58% | Potency [7]: inconclusive: 120 µM [cytotoxic, single point] | Potency [10]: inconclusive: 46.5 µM [cytotoxic, partial curve, poor fit]

CC(C)NCCCC1(C(N)=O)c2ccccc2-c2ccccc21
Potency [1]: inactive | Potency [6]: inactive | Potency [2]: inactive

O=C1CCCCCCCCCCCN1
Potency [1]: inconclusive: 34.3 µM [activator, partial curve] and inconclusive: 15.4 µM [activator, single point] | Potency [2]: inactive

O=c1[nH]cnc2[nH]ncc12
Potency [1]: inactive | Potency [9]: inactive

O=C1Nc2cc(Cl)ccc2Oc2ccccc21
Potency [1]: inconclusive: 33.5 µM [activator, single point] | Potency [5]: inactive | Potency [9]: inconclusive: 27.7 µM [rising, partial curve, poor fit]

CCO/C=C1\N=C(c2ccccc2)OC1=O
Potency [1]: inconclusive: 60.9 µM [activator, partial curve] | Potency [6]: inconclusive: 43.5 µM [cytotoxic, partial curve] | Potency [10]: inactive

CO[Si](CCCOCC1CO1)(OC)OC (stereo not given)
Potency [1]: inactive | Potency [2]: inconclusive: 43.6 µM [rising, partial curve]

CCCCC/C(=C\c1ccccc1)CO
Potency [1]: inconclusive: 60.4 µM [activator, partial curve] | Potency [6]: inconclusive: 8.61 µM [cytotoxic, single point]

CC1(C)[C@H](C(=O)O)N2C(=O)C[C@H]2S1(=O)=O
Potency [1]: inactive | Potency [6]: inactive

CC1=NN(c2ccc(S(=O)(=O)O)cc2)C(=O)C1
Potency [1]: inactive | Potency [9]: inconclusive: 50.5 µM [cytotoxic] | Potency [10]: inactive

N[C@@H](CSSC[C@H](N)C(=O)O)C(=O)O
activation [1]: inactive: -0.0368% [at 0.349 µM] | Potency [9]: inconclusive: 0.619 µM [activator] | Potency [2]: inconclusive: 0.301 µM [falling, partial curve, poor fit] | activity change, negative = cytotoxic [10]: inactive: 5.6% [at 0.29 µM]

C[Si](Cl)(c1ccccc1)c1ccccc1
Potency [1]: inconclusive: 29.9 µM [activator, partial curve] | Potency [7]: inconclusive: 124 µM [cytotoxic, single point] | Potency [3]: inconclusive: 66.8 µM [inhibitor, partial curve, poor fit] | Potency [10]: inconclusive: 53.6 µM [cytotoxic, single point]

Nc1nc(Cl)cc(Cl)n1
Potency [1]: inconclusive: 61.1 µM [activator, partial curve, poor fit] | Potency [7]: inconclusive: 113 µM [cytotoxic, single point]
